About 14,000 (4.5%) of roughly 310,000 compounds showed an effect of 50% or more. The effect is printed as a negative number. Some of the results follow.
Each compound was assayed against human ether-à-go-go-related gene (hERG) potassium channel (human, UniProt Q12809) (assay: primary screen, population patch clamp on CHO cells stably expressing hERG).
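Further: peak tail current of the secondary pulse compared with the same well before compound.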

human ether-à-go-go-related gene (hERG) potassium channel, sequence (Q12809 whole entry, looked up): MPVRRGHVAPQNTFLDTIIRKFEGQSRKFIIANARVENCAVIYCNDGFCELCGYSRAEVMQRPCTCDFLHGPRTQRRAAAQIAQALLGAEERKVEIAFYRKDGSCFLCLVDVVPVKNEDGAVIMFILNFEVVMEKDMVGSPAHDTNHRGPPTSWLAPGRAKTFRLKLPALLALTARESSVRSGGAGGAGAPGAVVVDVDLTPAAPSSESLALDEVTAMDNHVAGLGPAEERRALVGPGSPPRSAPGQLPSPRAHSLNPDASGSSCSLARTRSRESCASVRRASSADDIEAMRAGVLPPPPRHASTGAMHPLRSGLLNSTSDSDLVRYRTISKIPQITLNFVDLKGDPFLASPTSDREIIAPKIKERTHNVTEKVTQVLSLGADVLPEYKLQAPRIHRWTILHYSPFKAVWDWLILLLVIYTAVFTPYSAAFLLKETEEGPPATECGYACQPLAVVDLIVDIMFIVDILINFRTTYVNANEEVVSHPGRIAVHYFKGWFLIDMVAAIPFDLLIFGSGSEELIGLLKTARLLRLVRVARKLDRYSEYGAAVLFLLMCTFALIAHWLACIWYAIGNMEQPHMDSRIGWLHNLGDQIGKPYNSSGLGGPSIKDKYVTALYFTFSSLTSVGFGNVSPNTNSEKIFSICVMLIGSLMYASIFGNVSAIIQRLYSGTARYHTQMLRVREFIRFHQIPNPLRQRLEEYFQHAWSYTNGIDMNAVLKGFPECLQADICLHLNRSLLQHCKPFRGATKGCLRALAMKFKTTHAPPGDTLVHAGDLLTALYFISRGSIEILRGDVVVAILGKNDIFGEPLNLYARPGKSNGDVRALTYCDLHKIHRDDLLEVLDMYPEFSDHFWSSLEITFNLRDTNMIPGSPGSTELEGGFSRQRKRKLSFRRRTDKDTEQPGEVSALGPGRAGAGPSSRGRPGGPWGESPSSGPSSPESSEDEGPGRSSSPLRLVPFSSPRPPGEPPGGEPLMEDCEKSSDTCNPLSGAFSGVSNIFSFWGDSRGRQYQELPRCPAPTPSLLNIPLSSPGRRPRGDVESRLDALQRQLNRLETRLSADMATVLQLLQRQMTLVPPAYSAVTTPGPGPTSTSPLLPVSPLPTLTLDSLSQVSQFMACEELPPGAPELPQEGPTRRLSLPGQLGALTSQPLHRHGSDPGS

Structure (SMILES)	hERG current change (%, negative = inhibition) at 10uM [%]
Cc1ccc(Nc2nc(CSc3nnnn3-c3ccccc3)cc(=O)[nH]2)cc1	2.42
CCOC(=O)CSc1ccc(S(=O)(=O)N(CC)CC)cc1[N+](=O)[O-]	-27.2
Cc1ccc(-n2ncc3c(=O)n(CC(=O)NC4CCCC4)cnc32)cc1C	5.66
Cc1ccc2cc(CCNC(=O)C(=O)c3c(C)[nH]c4ccccc34)c(=O)[nH]c2c1	-7.95
COc1ccc2c(C)nc(Nc3nc(-c4ccccc4)cc(=O)[nH]3)nc2c1	2.47
CCOc1ccc(NC(=O)CCC(=O)NNS(=O)(=O)c2ccccc2[N+](=O)[O-])cc1	6.48
O=C(CN(C(=O)c1csnn1)c1cccc(Cl)c1)NC1CCCC1	-2.38
CC(C)N(CCCNC(=O)c1nn(C)c2c1CS(=O)(=O)c1ccccc1-2)Cc1ccccc1	-34.5
CCn1nnc2cc(C(=O)Nc3cc(OC)cc(OC)c3)ccc21	8.81
CC(=O)N(CC(=O)Nc1nn(-c2ccccc2)nc1C(N)=O)Cc1ccccc1	-14.9
Cc1ccccc1NC(=O)CN(c1ccc(F)cc1)S(C)(=O)=O	8.71
COC(=O)C1=CN(Cc2ccc(OC)c(OC)c2)C=C(C(=O)OC)C1c1ccc(O)cc1	6.18
COc1ccc(NC(=O)CC2C(=O)N(c3cccc(C)c3)C(=O)N2C2CCCCC2)cc1 (centres unmarked)	-14.5
O=C(Cc1ccc(Cl)cc1)NCCc1cnc[nH]1	13.5
CC(C)(C)CC(C)(C)NC(=S)Nc1ccc(S(=O)(=O)N2CCOCC2)cc1	-5.67
N#Cc1nc(-c2cccs2)oc1N1CCN(Cc2ccccc2)CC1	1.61
COc1ccc(N2CCN(CCNC(=O)CCNS(=O)(=O)c3cccs3)CC2)cc1	-24.7
Cc1cc(C)c(CN2CCC(CO)(CCOc3ccccc3)CC2)cc1C	-65.2
CC(C)CC(NC(=O)C1CCC(C)CC1)C(=O)Nc1cccnc1 (centres unmarked)	6.13
Cc1cc(C)nc(NC(=O)c2ccc(Cl)c(Cl)c2)n1	-7.33
COc1cc(Cl)c(C)cc1NC(=O)COC(=O)C1=COCCO1	19.4
O=C(Nc1ccccc1)c1cccc(N2C(=O)C3C4C=CC(C5CC45)C3C2=O)c1 (centres unmarked)	-7.8

Structure (SMILES)	hERG current change (%, negative = inhibition) at 10uM [%]
CC(c1ccccc1)N(CC(=O)NC1CCCCC1)S(=O)(=O)c1cccc(C(F)(F)F)c1 (centres unmarked)	-7.36
CCN1C(=O)CS/C1=N\S(=O)(=O)c1ccccc1	-5.21
COc1ccc(CN(Cc2cc3ccc(C)cc3[nH]c2=O)Cc2nnnn2C2CCCC2)cc1	-21.4
O=C1c2ccccc2C(=O)N1CCCSc1nc2ccccc2o1	-0.0418
CCc1nccn1S(=O)(=O)c1ccc2ccc(C)cc2c1	8.75
CCN(CC(=O)Nc1ccccc1OC)C(=O)c1cc(-c2ccccc2)nn1-c1ccccc1	-36.9
CNC(=O)/C(=C\c1ccc2c(c1)OCO2)NC(=O)c1ccc(Br)cc1	-56.5
COc1ccc(-c2csc(NC(=O)CSc3nnnn3C)n2)c(OC)c1	15.9
CCOC(=O)c1cc(-c2ccc(/C=C3/C(=O)N(c4ccc(C(=O)O)cc4)N=C3C)o2)ccc1Cl	0.757
CCCCNC(=O)C(=O)NC(C)CCc1ccccc1 (centres unmarked)	-4.62
O=C(CCC1CCCC1)N1CCC(N2CCN(c3ccccc3)CC2)CC1	-66.6
COc1cccc(-n2c(C)nc3c(cnn3-c3ccc(Cl)cc3)c2=O)c1	-10.2
CN(C)/N=C/C=C1\CCC/C(=C\c2ccc(F)c(F)c2)C1=O	13
CCN(CC)C1CCN(C(=O)c2cc(COc3ccccc3SC)on2)C1 (centres unmarked)	-68.4
Cc1sc2ncn(CC(=O)N3CCCCC3)c(=O)c2c1C	7.16
O=C1CCC/C(=N\NC(=O)c2ccc(COc3ccccc3-c3ccccc3)cc2)C1	5.27
COc1cc(Cl)c(C)cc1NC(=O)COC(=O)c1ccc(CN2CCCC2=O)cc1	-11.5
O=C1C=CCCC1	15.1
COc1cc(NC(=O)C2CC(=O)NC3=C2C(=O)CCC3)c(OC)cc1Cl (centres unmarked)	-5.71
[2H]c1c([2H])c([2H])c(C(=O)c2sc(N3CCCCCC3)nc2-c2ccccc2)c([2H])c1[2H]	-9.11
Cc1cc(=O)[nH]c(-n2nc(C)cc2C)n1	3.48
CN(CC(=O)Nc1ccccc1C(F)(F)F)C(=O)Cc1ccc(S(=O)(=O)N2CCOCC2)s1	-1.45

Structure (SMILES)	hERG current change (%, negative = inhibition) at 10uM [%]
CC(C)OC(=O)CSc1nc(N)c(C#N)c(-c2ccco2)c1C#N	4.97
COc1ccccc1NC(=O)c1ccc(SCC(=O)NCc2ccccc2Cl)c([N+](=O)[O-])c1	-0.627
CCOC(=O)C1CCCN(S(=O)(=O)c2ccc(NC(C)=O)cc2)C1 (centres unmarked)	10.1
Cc1c(NC(=O)C(=O)/C=C(/O)c2ccccc2)c(=O)n(-c2ccccc2)n1C	2.46
CC(=O)/C=C1/C(=O)Nc2ccccc21	-9.81
COC(=O)CNC(=O)Cc1c(C)n(C(=O)c2ccc(Cl)cc2)c2ccc(OC)cc12	-14.8
O=C(Nc1cccnc1Cl)c1cc2ccccc2o1	6.92
COc1ccc(-c2csc(NC(=O)c3ccc(N4C(=O)CCC4=O)cc3)n2)cc1OC	20.6
O=C(COc1cccc2c1CCN(Cc1ccccc1)C2=O)NCc1ccco1	-70.3
O=C(/C=C/c1ccccc1)NC1CCCc2ccccc21 (centres unmarked)	39.7
Cc1cccc(CC(C)NC(=O)c2oc3c(F)cccc3c2C)n1 (centres unmarked)	11.3
O=C1c2ccccc2C(=O)N1CCc1csc(NNc2nc(CCN3C(=O)c4ccccc4C3=O)cs2)n1	-13.9
Cc1cc(C(=O)N2CCC(C(=O)O)CC2)c(C)o1	6.42
O=[N+]([O-])c1ccc(NC(=S)N2CCN(c3ccc(F)cc3)CC2)cc1	3.73
Cc1oc(C(=O)O)cc1CSCc1ccoc1C(=O)O	7.26
COc1ccc(O)c(C(=O)c2cnc3nc4ccccc4n3c2)c1	-12.8
COc1ccc(NC(=O)C(C)Sc2ccccc2)cc1 (centres unmarked)	1.14
COc1ccc(C(C(=O)NC(C)C)N(C(=O)CCC(=O)Nc2nccs2)c2ccccc2F)cc1 (centres unmarked)	13.2
O=C(O)C(Cc1ccccc1)NC(=O)C(c1ccccc1)c1ccccc1 (centres unmarked)	15
O=C(Nc1ccc(S(=O)(=O)Nc2ncccn2)cc1)c1ccc2ncsc2c1	-2.39
Cc1cccc(C)c1OCCNC(=O)CCC(=O)c1ccccc1	-0.949
COc1c(Cl)ccc(Cl)c1C(=O)NC(=S)N1CCOCC1	25.1

Structure (SMILES)	hERG current change (%, negative = inhibition) at 10uM [%]
COc1ccc(-c2nnn(CC(=O)N(CC(=O)NCCC(C)C)c3ccccc3)n2)cc1OC	-6.42
O=C(CCCc1ccccc1)N=C1SC2CS(=O)(=O)CC2N1c1ccccc1F (centres unmarked)	-26.4
O=c1[nH]c(C2CCCN(S(=O)(=O)c3ccccc3)C2)nc2c1nnn2Cc1ccc2c(c1)OCCO2 (centres unmarked)	-0.905
CCNC(=O)CC1C(=O)N(c2ccc(F)cc2)C(=O)N1Cc1ccccn1 (centres unmarked)	-33.2
FC(F)(F)c1nnc2sc(-c3ccccn3)nn12	12
Cc1cccc(NC(=O)CSCC(=O)NNC(=O)c2ccoc2C)c1	7.04
COc1cccc(-c2cc(C(F)(F)F)nc(N3CCOCC3)n2)c1	7.16
COc1ccc2nc(N/C(N)=N/C(=S)Nc3ccc(C)c(C)c3)nc(C)c2c1	10.2
CCN(C(=O)Cn1c(=O)oc2ccccc21)c1cccc(C(F)(F)F)c1	1.62
COc1cc(OC)cc(-c2cc3ccc(OC)cc3cn2)c1	10.4
COc1ccc2c(c1OC)C(=O)N1c3ccccc3C(=O)N(c3ccccc3F)C21 (centres unmarked)	5.3
COc1cnc(-c2ccccc2)nc1Oc1ccc(Cl)cc1C	-3.13
CCC(=O)Nc1ccc2c(c1)ncn2-c1ccccc1OC	-9.67
S=C(NCCCn1ccnc1)Nc1cccc(Cl)c1	-26.5
O=C(NCc1ccccn1)C1C2C=CC(C2)C1C(=O)Nc1ccc(F)cc1 (centres unmarked)	-2.92
Cc1ccc(O)c(CNc2nc3ccccc3n2C(C)C)c1	12.9
CC(C)N1CCc2c(sc(NC(=O)Cc3ccccc3)c2C#N)C1.Cl	-16
COc1ccc(CNC(=O)CSc2n[nH]c(N)n2)cc1OC	-77.5
Cc1nc(N)nc(N)c1CCCc1ccc(Cl)c(Cl)c1	-16.6
COc1ccc(C(=O)OCC(=O)Nc2cc(S(=O)(=O)N3CCOCC3)ccc2N2CCCC2)cc1	-3.54

Reference: PMC4336329 (PLoS ONE, 2015)
